# In PubChem BioAssay AID485360 (National Center for Advancing Translational Sciences (NCATS), 2010):
# “And” between values parts separate entries of the source, which are not always exact repeats. Equal values may be shown once. Screen size: about 230,000 compounds; about 1,500 (0.65%) were called active. This list was built around the results that the source calls inconclusive (neither active nor inactive); the mix of calls is not that of the screen. Calls follow the shape of the dose curve; as a rule, active = well fitted inhibition curve with a large enough effect; inconclusive = small, poorly fitted or top-dose-only effect; inactive = no such curve, though single readings can be large or run the other way. Potencies beside an inconclusive call are fits to weak or partial responses and may not hold up.
# Biological target: Lethal(3)malignant brain tumor-like protein 1 (Homo sapiens) (UniProt Q9Y468)
# Assay: qHTS Assay for the Inhibitors of L3MBTL1; also: nearly all actives have a fitted effect of over 60% in size
# Details: AlphaScreen L3MBTL1–H3K9me1 peptide binding; series mostly up to 57.1 µM
# Procedure, shortened: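 L3MBTL1 (50 nM) pre-complexed 30 min with biotinylated H3(1-15)K9me1 peptide (75 nM), then compounds added for 30 min at room temperature; AlphaScreen streptavidin donor/nickel chelate acceptor beads (10 ug/mL final) read after 30 min dark incubation.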
# Potency is read from the fitted curve at half-maximal effect; tags tell the direction and shape of the fitted curve.
# Sequence of UniProt Q9Y468 (Q9Y468 whole entry, looked up): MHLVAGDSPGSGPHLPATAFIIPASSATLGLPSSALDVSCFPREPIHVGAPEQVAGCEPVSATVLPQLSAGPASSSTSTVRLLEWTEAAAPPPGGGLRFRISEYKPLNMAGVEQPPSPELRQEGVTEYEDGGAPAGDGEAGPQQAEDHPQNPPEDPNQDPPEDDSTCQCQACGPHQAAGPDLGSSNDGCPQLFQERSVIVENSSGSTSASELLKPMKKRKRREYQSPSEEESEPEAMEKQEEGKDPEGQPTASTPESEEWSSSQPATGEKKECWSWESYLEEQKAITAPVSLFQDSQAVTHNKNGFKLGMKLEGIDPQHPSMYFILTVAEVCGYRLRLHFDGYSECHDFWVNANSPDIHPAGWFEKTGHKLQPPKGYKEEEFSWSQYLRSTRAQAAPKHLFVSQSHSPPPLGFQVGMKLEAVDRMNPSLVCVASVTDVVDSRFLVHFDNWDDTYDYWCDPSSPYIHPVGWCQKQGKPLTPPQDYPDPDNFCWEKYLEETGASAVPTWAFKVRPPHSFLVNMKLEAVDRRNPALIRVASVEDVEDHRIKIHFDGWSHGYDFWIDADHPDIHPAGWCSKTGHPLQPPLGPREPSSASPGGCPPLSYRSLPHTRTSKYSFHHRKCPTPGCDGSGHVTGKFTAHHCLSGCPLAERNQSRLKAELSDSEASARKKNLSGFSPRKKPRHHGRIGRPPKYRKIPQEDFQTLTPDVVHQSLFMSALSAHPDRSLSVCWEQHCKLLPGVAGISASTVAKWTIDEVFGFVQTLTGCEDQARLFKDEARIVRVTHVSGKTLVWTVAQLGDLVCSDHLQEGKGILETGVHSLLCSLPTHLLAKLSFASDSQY
row,Compound,Potency
1,COc1ccc(/C=N/NC(=O)CN(C2=NS(=O)(=O)c3ccccc32)c2ccccc2)cc1,"inconclusive: 31.6 µM [inhibitor, single point]"
2,CCN(CC)C(=O)CSc1nc2ccc(NC(=O)CSc3nccn3C)cc2s1,"inconclusive: 14.1 µM [inhibitor, partial curve]"
3,COc1ccc(CNc2ccc3c(c2)ncn3-c2ccccc2OC)cc1,"inconclusive: 39.8 µM [inhibitor, single point]"
4,CCN(CCO)Cc1csc2cc(C)ccc12,inactive
5,CCn1nc(CC(=O)Nc2ccc(-n3cnnn3)c(OC)c2)c2ccccc2c1=O,inactive
6,Cn1c(=O)[nH]c(=O)c2c1nc(N1CCOCC1)n2CC(O)COc1ccc2ccccc2c1 (centres undefined),"inconclusive: 6.31 µM [inhibitor, single point]"
7,Cc1ccc(S(=O)(=O)NCc2ccccc2)cc1C(=O)N1CCN(S(=O)(=O)c2ccccc2)CC1,inactive
8,NS(=O)(=O)c1ccc(N/N=C/c2ccccc2C(=O)O)c([N+](=O)[O-])c1,"inconclusive: 39.8 µM [inhibitor, single point]"
9,Cc1ccc(N(C(C)C(=O)Nc2ccc3c(c2)OCO3)S(C)(=O)=O)cc1 (centres undefined),"inconclusive: 6.31 µM [inhibitor, single point]"
10,N/C(=N\OS(=O)(=O)c1ccccc1)c1ccccn1,inactive
11,COc1ccc(-c2cc(-c3ccco3)[nH]c(=O)c2C#N)cc1OC,"inconclusive: 35.5 µM [inhibitor, single point]"
12,CC(C)CC(=O)Nc1ccc(C(=O)COC(=O)CN2C(=O)NC3(CCCCC3C)C2=O)cc1 (centres undefined),"inconclusive: 39.8 µM [inhibitor, single point]"
13,Cc1cccc(N=Cc2c(O)cc(C)oc2=O)c1,"inconclusive: 0.1 µM [inhibitor, full curve, poor fit]"
14,NC(=O)c1ccnc2c(O)cccc12,active: 10 µM and active: 14.1 µM
15,CCc1ccc2[nH]c(=O)c(C(c3nnnn3CCOC)N3CCN(c4ccccc4)CC3)cc2c1 (centres undefined),inactive
16,COCCCNC(=O)c1sc2ncnc(N3CCc4ccccc4C3)c2c1C,"inconclusive: 5.01 µM [inhibitor, full curve]"
17,C/C(=N\NC(=O)c1ccccc1)c1ccc(-n2ccnc2)cc1,"inconclusive: 0.708 µM [inhibitor, single point]"
18,CCN1CCCC1CNC(=O)c1ccc(CS(=O)(=O)c2ccccc2C)o1 (centres undefined),"inconclusive: 3.55 µM [inhibitor, single point]"
19,COc1ccc(Cn2cc3c(-c4ccc(F)cc4)nnc-3c3cc(OC)c(OC)cc32)cc1,inactive
20,CCc1ccc(CSc2nccn2-c2ccccc2)cc1,"inconclusive: 17.8 µM [inhibitor, partial curve]"
21,Cc1ccc(NCc2n[nH]c(=S)n2Cc2ccccc2)cc1Cl,"inconclusive: 31.6 µM [inhibitor, partial curve]"
22,CCOC(=O)C1C(c2ccccc2Cl)NC(=O)N(C)C1(O)C(F)(F)F (centres undefined),"inconclusive: 39.8 µM [inhibitor, single point]"
23,Cc1ccc(CN2CCN(/N=C\C=C\c3ccccc3)CC2)cc1,"inconclusive: 35.5 µM [inhibitor, single point]"

row,Compound,Potency
1,CC(C)N(C(=O)COC(=O)[C@@H]1CC(O)CN1S(=O)(=O)c1ccc(C(C)(C)C)cc1)C(C)C (some centres undefined),"inconclusive: 0.316 µM [inhibitor, full curve]"
2,COc1ccc(/C=N/N2CCN(c3ccc(Cl)cc3)CC2)cc1,inactive
3,Cc1cc(C(=O)OCC(=O)c2ccc(Cl)c([N+](=O)[O-])c2)c2cccc(C)c2n1,"inconclusive: 31.6 µM [inhibitor, single point]"
4,O=[N+]([O-])c1cc(C(F)(F)F)cc([N+](=O)[O-])c1NCCNC(=S)Nc1cccc(F)c1,"inconclusive: 7.08 µM [inhibitor, full curve, poor fit]"
5,O=C(COC(=O)/C=C/c1ccc(Br)o1)Nc1ccccc1F,"inconclusive: 39.8 µM [inhibitor, partial curve]"
6,O=C(O)/C=C/C(=O)Nc1ccc(O)cc1,"inconclusive: 25.1 µM [inhibitor, single point]"
7,COc1cccc(CN2CCC(C(=O)N3CCN(c4ccccc4F)CC3)CC2)c1,inactive
8,Fc1ccc(C2=CSC3=NCCN23)cc1,"inconclusive: 0.794 µM [inhibitor, single point]"
9,O=C(O)CN(c1ccccc1)S(=O)(=O)c1cc(C(F)(F)F)cc(C(F)(F)F)c1,"inconclusive: 35.5 µM [inhibitor, single point]"
10,Cc1nc2ccccc2c(=O)n1/N=C/c1ccc(O)cc1O,inactive
11,CC1=NN(c2ccccc2)C(=O)/C1=C\c1ccc(Br)s1,"inconclusive: 12.6 µM [inhibitor, partial curve]"
12,COc1cc2cc3c(N)c(C(=O)Nc4sc(C)c(C)c4C#N)sc3nc2cc1OC,active: 3.16 µM
13,COc1ccc(NC(=O)c2cc(C)n(Cc3cccs3)c2C)cc1,"inconclusive: 25.1 µM [inhibitor, single point]"
14,Cc1cc(C)c2c(c1)NC(C(=O)O)C1CC=CC21 (centres undefined),active: 5.01 µM
15,O=C(CSc1nn(-c2ccc(F)cc2)c(=S)s1)NC(=O)NCc1ccco1,"inconclusive: 28.2 µM [inhibitor, single point]"
16,CCOc1ccc(NC(=O)c2cccc(-n3cccc3)c2)cc1S(=O)(=O)N1CCOCC1,active: 5.62 µM
17,CCCN=C1NC(=O)C(CC(=O)NCCc2ccccc2)S1 (centres undefined),"inconclusive: 0.631 µM [inhibitor, partial curve, poor fit]"
18,O=C1NC2(CCC3(CC2)OCCO3)NN1c1ccccc1,"inconclusive: 0.1 µM [inhibitor, full curve, poor fit]"
19,Cc1ccc(C(=O)C(C)OC(=O)c2cc(=O)[nH]c3ccccc23)cc1 (centres undefined),"inconclusive: 39.8 µM [inhibitor, single point]"
20,Cc1ccc(-c2nc3ccccn3c2NCc2ccc3c(c2)OCO3)cc1,"inconclusive: 28.2 µM [inhibitor, single point]"
21,O=C(CCCOc1ccccc1)Nc1nnc(C2CCCO2)s1 (centres undefined),inactive
22,CCCCc1c(CCC)c(=N)c2ccccc2n1C,inactive
23,Cc1ccc(CNc2ccc(N3CCOCC3)cc2)cc1,"inconclusive: 25.1 µM [inhibitor, single point]"

row,Compound,Potency
1,CCOC(=O)C1CCN(C(=O)COC(=O)CSc2ccccc2C)CC1,"inconclusive: 1 µM [inhibitor, full curve, poor fit]"
2,O=C(COC(=O)Cn1cc(C(F)(F)F)ccc1=O)NCc1ccccc1,inactive
3,Cc1ccc(NC2=C(NCCO)C(=O)c3ccccc3C2=O)cc1,"inconclusive: 39.8 µM [inhibitor, single point]"
4,Cc1ccc(C(=O)N/N=C/c2cn(Cc3ccccc3)c3ccccc23)cn1,"inconclusive: 22.4 µM [inhibitor, single point]"
5,COc1cccc(C(=O)NC(=S)Nc2ccc(N(C)C)cc2)c1,"inconclusive: 3.98 µM [inhibitor, partial curve, poor fit]"
6,Cc1nc(SCC(=O)Nc2ccc3c(c2)OCCO3)nc(C)c1C,inactive
7,Cc1cc2oc(C(=O)Nc3ccc(S(=O)(=O)Nc4nccs4)cc3)cc(=O)c2cc1Cl,"inconclusive: 31.6 µM [inhibitor, single point]"
8,O=C(CSc1cccc[n+]1[O-])Nc1ccc([N+](=O)[O-])cc1Cl,inactive
9,CC(=O)N1CCN(CC(O)COc2ccc(OCc3ccccc3)cc2)CC1 (centres undefined),"inconclusive: 4.47 µM [inhibitor, single point]"
10,c1ccc(C2c3[nH]c4ccccc4c3CCN2Cc2cccn2-c2cccnc2)nc1 (centres undefined),"inconclusive: 39.8 µM [inhibitor, single point]"
11,Cc1oc(-c2ccccc2)nc1C(=O)N1CCN(c2ccc(F)cc2)CC1,"inconclusive: 17.8 µM [inhibitor, partial curve]"
12,Cc1ccc(-n2cccc2/C=C2/C(=N)N3C(=NC2=O)SN=C3S(C)(=O)=O)cc1Cl,"inconclusive: 28.2 µM [inhibitor, single point]"
13,COc1ccc(/C=N/N=C2/NC(=O)C(CC(=O)O)S2)cc1OCc1ccc(Cl)cc1Cl (centres undefined),"inconclusive: 39.8 µM [inhibitor, single point]"
14,O=[N+]([O-])c1cc(Cl)cc(/C=N/n2cnnc2)c1O,inactive
15,CCNC(=S)N=Nc1c(O)n(Cc2ccc(Cl)cc2)c2ccccc12,"inconclusive: 39.8 µM [inhibitor, single point]"
16,O=c1c2c3c(sc2nc2n1CCCCC2)CCCCC3,inactive
17,CC(C)n1cnc2c(NCc3ccccc3)cc(OCC3CCN(C)CC3)cc21,"inconclusive: 31.6 µM [inhibitor, single point]"
18,CN(C)c1ccc(/C=C/C(=O)c2ccc3c(c2)OCCO3)cc1[N+](=O)[O-],inactive
19,C=CCn1c(SCc2cc(=O)n3ccsc3n2)nnc1C1CCCCC1,"inconclusive: 31.6 µM [inhibitor, single point]"
20,CC(CC(=O)NCc1cccnc1)c1ccccc1 (centres undefined),"inconclusive: 7.08 µM [inhibitor, single point]"
21,Cc1ccc2c(c1)-c1c(ssc1=S)C(C)(C)N2C(=O)CSC1=NCCS1,"inconclusive: 2.51 µM [inhibitor, full curve, poor fit]"
22,CC(CC(=O)Nc1cccc(S(=O)(=O)N2CCCCC2)c1)c1ccccc1 (centres undefined),"inconclusive: 0.708 µM [inhibitor, single point]"
23,O=C(COc1ccc2oc3c(c2c1)CCCC3)Nc1ccccn1,"inconclusive: 0.708 µM [inhibitor, single point]"
